# The supplement of paper PMC8728848
# The list shows a part of the results.
# What was measured:
# Assay in all cases: glycan array binding signal (z-score within array); higher = stronger binding
# Settings in all cases: glycan notation: IUPAC condensed, linker removed
# [1] = target: Neu5Ac(a2-3)Gal6S(b1-4)[Fuc(a1-3)]GlcNAc
# Summary of the method: (§1)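 From the Consortium for Functional Glycomics database, 3228 arrays were curated, keeping only those whose protein sequence was available. Binding is given as a within-array Z-score averaged across arrays sharing a protein sequence and across linkers. Negative Z-scores can be read as non-binding.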
# Neu5Ac(a2-3)GalNAc = target: Neu5Ac(a2-3)GalNAc
# Summary of the method: as §1
# [2] = target: Neu5Ac(a2-3)GalNAc(b1-4)GlcNAc
# Summary of the method: as §1
# [3] = target: Neu5Ac(a2-3)[GalNAc(b1-4)]Gal(b1-4)Glc
# Summary of the method: as §1
# [4] = target: Neu5Ac(a2-3)[GalNAc(b1-4)]Gal(b1-4)GlcNAc
# Summary of the method: as §1
# [5] = target: Neu5Ac(a2-3)[GalNAc(b1-4)]Gal(b1-4)GlcNAc(b1-3)GalNAc
# Summary of the method: as §1
# [6] = target: Neu5Ac(a2-3)[Neu5Ac(a2-6)]GalNAc
# Summary of the method: as §1
# Neu5Ac(a2-6)Gal = target: Neu5Ac(a2-6)Gal
# Summary of the method: as §1
# [7] = target: Neu5Ac(a2-6)Gal(b1-3)GlcNAc(b1-3)[Gal(b1-4)GlcNAc(b1-6)]Gal(b1-4)Glc
# Summary of the method: as §1
# Neu5Ac(a2-6)Gal(b1-4)Glc = target: Neu5Ac(a2-6)Gal(b1-4)Glc
# Summary of the method: as §1
# [8] = target: Neu5Ac(a2-6)Gal(b1-4)GlcNAc
# Summary of the method: as §1
# [9] = target: Neu5Ac(a2-6)Gal(b1-4)GlcNAc(b1-2)Man
# Summary of the method: as §1
# [10] = target: Neu5Ac(a2-6)Gal(b1-4)GlcNAc(b1-2)Man(a1-3)Man(b1-4)GlcNAc(b1-4)GlcNAc
# Summary of the method: as §1
# [11] = target: Neu5Ac(a2-6)Gal(b1-4)GlcNAc(b1-2)Man(a1-3)[Gal(b1-4)GlcNAc(b1-2)Man(a1-6)]Man(b1-4)GlcNAc(b1-4)GlcNAc
# Summary of the method: as §1
# [12] = target: Neu5Ac(a2-6)Gal(b1-4)GlcNAc(b1-2)Man(a1-3)[GlcNAc(b1-4)][Neu5Ac(a2-6)Gal(b1-4)GlcNAc(b1-2)Man(a1-6)]Man(b1-4)GlcNAc(b1-4)GlcNAc
# Summary of the method: as §1
# [13] = target: Neu5Ac(a2-6)Gal(b1-4)GlcNAc(b1-2)Man(a1-3)[Man(a1-6)]Man(b1-4)GlcNAc(b1-4)GlcNAc
# Summary of the method: as §1
# [14] = target: Neu5Ac(a2-6)Gal(b1-4)GlcNAc(b1-2)Man(a1-3)[Neu5Ac(a2-3)Gal(b1-4)GlcNAc(b1-2)Man(a1-6)]Man(b1-4)GlcNAc(b1-4)GlcNAc
# Summary of the method: as §1
# [15] = target: Neu5Ac(a2-6)Gal(b1-4)GlcNAc(b1-2)Man(a1-3)[Neu5Ac(a2-6)Gal(b1-4)GlcNAc(b1-2)Man(a1-6)]Man(b1-4)GlcNAc(b1-4)GlcNAc
# Summary of the method: as §1
# [16] = target: Neu5Ac(a2-6)Gal(b1-4)GlcNAc(b1-2)Man(a1-3)[Neu5Ac(a2-6)Gal(b1-4)GlcNAc(b1-2)Man(a1-6)]Man(b1-4)GlcNAc(b1-4)[Fuc(a1-6)]GlcNAc
# Summary of the method: as §1
# [17] = target: Neu5Ac(a2-6)Gal(b1-4)GlcNAc(b1-2)Man(a1-6)Man(b1-4)GlcNAc(b1-4)GlcNAc
# Summary of the method: as §1
# [18] = target: Neu5Ac(a2-6)Gal(b1-4)GlcNAc(b1-2)Man(a1-6)[Gal(b1-4)GlcNAc(b1-2)Man(a1-3)]Man(b1-4)GlcNAc(b1-4)GlcNAc
# Summary of the method: as §1
# [19] = target: Neu5Ac(a2-6)Gal(b1-4)GlcNAc(b1-2)Man(a1-6)[GlcNAc(b1-2)Man(a1-3)]Man(b1-4)GlcNAc(b1-4)GlcNAc
# Summary of the method: as §1
binder,measurement,setting,value
"InvD YPIII (Yersinia pseudotuberculosis), B1JSC0 (protein) MIKYFSFFKKPEPIVGILPNRQSHHILPTHIRRVAWGTLLLQLFIPLSVSFSPAIAAMKASKADTMVSYSSTEPYVLGSGETVAMVAKKYGITVDELKKINIYRTFSRPFTALTTGDEIDIPRKASPFSVDNNKDNRLSVENTLAGHAVAGATALSNGDVAKSGERMVRSAASNEFNNSAQQWLSQFGTARVQLNINDDFHLDGSAADVLIPLYDNEKSILFTQLGARNKDSRNTVNMGAGVRTFQGNWMYGANTFFDNDLTGKNRRIGVGAEAWTDYLKLSANNYFGITDWHQSRDFIDYNERPANGYDLRAEAYLPSYPQLGGKAMYEKYRGDDVALFGKDNRQKNPHAITAGVNYTPIPLVTIGAEHRAGKGGQNDSNINFQLNYRLGETWQSHIDPSAVAASRTLAGSRYDLVERNNHIVLDYQKQNLVRLSLPDSLAGDPFSQLSVTAQVTATHGLERIDWQSAELMAAGGVLKQTSKNGLEITLPEYQMNRTGGNSYILNAIAYDTQGNASSQASMLITVNAQKINIANSTLVAVPINIEANNSDTSVVTLTLKDDNNIPVTGQDVTFLSPLGTLSAMTDSGNGVYTATLTAGTVSGTTAVSSNINGSALDMTPATVTLNGNSGELSITHSMLVAAPVNIEANGSDTSVVTLTLRDSNNNPVTGQTVTFAGTLGTLGAVTEGSSGVYTATLTAGIMVGTSSITASVNSTALGVTPATVTLNGDSGNLSTTNSTLVAAPVNIEANSSDTSVVTLTLRDNNNNPVTGQTVVFTSTLGTLGNVTEQASGVYTATLTAGTVSGVASLSVSVGGNALGVTPATVTLNGDSGNLSTTNSTLVAAPVNIEANSSDTSVVTLTLRDNNNNPVTGQTVNFAGTLGTLGTVSEGSSGVYTTTLTAGTVAGVASLSVNVGGNALGVTPATVTLNGNSGNLSATNSTLVAAPVNIEANSSDTSVVTLTLRDNNNNPVTGQTVAFTSTLGTLGNVTEQASGVYTATLTAGTVSGVASLSVSVNSNALGVTPATVTLNGDSGNLSTTNSTLVAAPVNIEANSSDTSVVTLTLRDNNNNPVTGQTVAFTSTLGTLGNVTEQASGLYTATLTAGTVSGVASLSVNVGGNALGVTPATVTLNGDSGNLSATNSTLVAAPVNIEANSSDTSVVTLTLRDNNNNPVTGQTVAFTSTLGTLGNVTEQASGLYTATLTAGTVSGVASLSVNVGGTALGVTPATVTLNGDSGNLSTTNSTLVAAPVNIEANSSDTSVVTLTLRDNNNNPVTGQTVAFTSTLGTLGNVTEQASGLYTATLTAGTVSGVASLSVSVNSTALGVTPATVTLNGDSGNLSTTNSTLVAAPVNIEANSSDTSVVTLTLRDNNNNPVTGQTVAFTSTLGTLGNVTEQASGVYTATLTAGTVAGVASLSVNVGGNALGVTPATVTLNGDSGNLSTTNSTLVAAPVNIEANSSDTSVVTLTLRDNNNNPVTGQTVAFTSTLGTLGNVTEQASGVYTATLTAGTVSGVASLSVSVGSSALGVTPATVTLNGDSGNLSTTNSTLVAAPVNIEANNSDTSVVTLTLRDNNNNPVTGQTVAFTSTLGTLGNVTEQASGVYTATLTAGTVSGVASLSVSVNSNALGVTPATVTLNGDSGNLSTTNSTLVAAPVNIEANSSDTSVVTLTLRDNNNNPVTGQTVVFTSTLGTLGNVTEQASGLYTATLTAGTVSGVASLSVSVGGNALGVTGNITLAPGALDAARSILAVNKPSINADDRIGSTITFTAQDAQGNAITGLDIAFMTDLENSQIMTLVDHNDGTYTANINGTQTGIANIAVQSSGATIAGLAATMVTITPGAWNTTQATPVMTVALPITTCQSSSGVYKRYYIGIVTHELYDNYGNEISGILTYNLGAGRYTTVTSQNSSVSGSNGLTRRSNSPVSHFILTSDAYTSQAACYAERIANVNVTITVTAITDDFKTSAVNKVFILGTGSN",glycan array binding signal (z-score),[1],-0.136
same,glycan array binding signal (z-score),Neu5Ac(a2-3)GalNAc,0.092
same,glycan array binding signal (z-score),[2],-0.005
same,glycan array binding signal (z-score),[3],-0.133
same,glycan array binding signal (z-score),[4],-0.286
same,glycan array binding signal (z-score),[5],0.578
same,glycan array binding signal (z-score),[6],-0.196
same,glycan array binding signal (z-score),Neu5Ac(a2-6)Gal,-0.331
same,glycan array binding signal (z-score),[7],-0.104
same,glycan array binding signal (z-score),Neu5Ac(a2-6)Gal(b1-4)Glc,-0.201
same,glycan array binding signal (z-score),[8],-0.215
same,glycan array binding signal (z-score),[9],-0.082
same,glycan array binding signal (z-score),[10],-0.111
same,glycan array binding signal (z-score),[11],-0.301
same,glycan array binding signal (z-score),[12],-0.322
same,glycan array binding signal (z-score),[13],-0.236
same,glycan array binding signal (z-score),[14],0.032
same,glycan array binding signal (z-score),[15],0.162
same,glycan array binding signal (z-score),[16],0.467
same,glycan array binding signal (z-score),[17],-0.284
same,glycan array binding signal (z-score),[18],-0.275
same,glycan array binding signal (z-score),[19],0.111
